# Source: the supplement of paper PMC8728848
# The other results are listed elsewhere or left out.
# Assays:
# Test in all cases: glycan array binding signal (z-score within array); higher = stronger binding
# Details in all cases: glycan notation: IUPAC condensed, linker removed
# [1] = molecular target: Gal(b1-3)[Fuc(a1-4)]GlcNAc(b1-3)Gal(b1-4)[Fuc(a1-3)]GlcNAc
# Outline: (§1)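 Glycan array binding is given as a within-array Z-score, which can be read as non-binding when negative. The arrays, 3228 of them, came from the Consortium for Functional Glycomics database and were retained only where the protein sequence was available. Z-scores were averaged across arrays of the same protein sequence at different concentrations or buffers and across linkers.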
# [2] = molecular target: Gal(b1-3)[GlcNAc(b1-6)]GalNAc
# Outline: as §1
# [3] = molecular target: Gal(b1-3)[Neu5Ac(a2-6)]GalNAc
# Outline: as §1
# [4] = molecular target: Gal(b1-3)[Neu5Ac(a2-6)]GlcNAc(b1-6)Gal(b1-4)Glc
# Outline: as §1
# [5] = molecular target: Gal(b1-3)[Neu5Ac(b2-6)]GalNAc
# Outline: as §1
# [6] = molecular target: Gal(b1-4)GalNAc(a1-3)[Fuc(a1-2)]Gal(b1-4)GlcNAc
# Outline: as §1
# [7] = molecular target: Gal(b1-4)GalNAc(b1-3)[Fuc(a1-2)]Gal(b1-4)GlcNAc
# Outline: as §1
# Gal(b1-4)Glc = molecular target: Gal(b1-4)Glc
# Outline: as §1
# Gal(b1-4)Glc6S = molecular target: Gal(b1-4)Glc6S
# Outline: as §1
# Gal(b1-4)GlcNAc = molecular target: Gal(b1-4)GlcNAc
# Outline: as §1
# [8] = molecular target: Gal(b1-4)GlcNAc(b1-2)Man(a1-3)[Gal(b1-4)GlcNAc(b1-2)Man(a1-6)]Man(b1-4)GlcNAc(b1-4)GlcNAc
# Outline: as §1
# [9] = molecular target: Gal(b1-4)GlcNAc(b1-3)Gal(b1-4)Glc
# Outline: as §1
# [10] = molecular target: Gal(b1-4)GlcNAc(b1-3)Gal(b1-4)GlcNAc
# Outline: as §1
# [11] = molecular target: Gal(b1-4)GlcNAc(b1-3)Gal(b1-4)GlcNAc(b1-3)Gal(b1-4)GlcNAc
# Outline: as §1
# [12] = molecular target: Gal(b1-4)GlcNAc(b1-3)Gal(b1-4)[Fuc(a1-3)]GlcNAc(b1-3)Gal(b1-4)[Fuc(a1-3)]GlcNAc
# Outline: as §1
# [13] = molecular target: Gal(b1-4)GlcNAc(b1-3)GalNAc
# Outline: as §1
# [14] = molecular target: Gal(b1-4)GlcNAc(b1-3)[Gal(b1-4)GlcNAc(b1-6)]GalNAc
# Outline: as §1
# [15] = molecular target: Gal(b1-4)GlcNAc(b1-6)Gal(b1-4)GlcNAc(b1-6)GalNAc
# Outline: as §1
# [16] = molecular target: Gal(b1-4)GlcNAc(b1-6)GalNAc
# Outline: as §1
# [17] = molecular target: Gal(b1-4)GlcNAc(b1-6)[Gal(b1-3)]GalNAc
# Outline: as §1
# Gal3S(b1-3)GalNAc = molecular target: Gal3S(b1-3)GalNAc
# Outline: as §1
# Gal3S(b1-3)GlcNAc = molecular target: Gal3S(b1-3)GlcNAc
# Outline: as §1
# [18] = molecular target: Gal3S(b1-3)[Fuc(a1-4)]GlcNAc
# Outline: as §1
# Gal3S(b1-4)Glc = molecular target: Gal3S(b1-4)Glc
# Outline: as §1
# Gal3S(b1-4)Glc6S = molecular target: Gal3S(b1-4)Glc6S
# Outline: as §1
# Gal3S(b1-4)GlcNAc = molecular target: Gal3S(b1-4)GlcNAc
# Outline: as §1
# Gal3S(b1-4)GlcNAc6S = molecular target: Gal3S(b1-4)GlcNAc6S
# Outline: as §1
# Gal3S6S(b1-4)GlcNAc = molecular target: Gal3S6S(b1-4)GlcNAc
# Outline: as §1
# Gal3S6S(b1-4)GlcNAc6S = molecular target: Gal3S6S(b1-4)GlcNAc6S
# Outline: as §1
# Gal4S(b1-4)GlcNAc = molecular target: Gal4S(b1-4)GlcNAc
# Outline: as §1
# Gal4S6S(b1-4)GlcNAc = molecular target: Gal4S6S(b1-4)GlcNAc
# Outline: as §1
# Gal6S(b1-4)Glc = molecular target: Gal6S(b1-4)Glc
# Outline: as §1
# Gal6S(b1-4)Glc6S = molecular target: Gal6S(b1-4)Glc6S
# Outline: as §1
# Gal6S(b1-4)GlcNAc = molecular target: Gal6S(b1-4)GlcNAc
# Outline: as §1
# GalNAc(a1-3)Gal = molecular target: GalNAc(a1-3)Gal
# Outline: as §1
# GalNAc(a1-3)GalNAc = molecular target: GalNAc(a1-3)GalNAc
# Outline: as §1
# [19] = molecular target: GalNAc(b1-3)Gal(a1-4)Gal(b1-4)GlcNAc
# Outline: as §1
# GalNAc(b1-3)GalNAc = molecular target: GalNAc(b1-3)GalNAc
# Outline: as §1
# GalNAc(b1-4)GlcNAc = molecular target: GalNAc(b1-4)GlcNAc
# Outline: as §1
# Glc(a1-4)Glc = molecular target: Glc(a1-4)Glc
# Outline: as §1
# Glc(a1-6)Glc(a1-6)Glc = molecular target: Glc(a1-6)Glc(a1-6)Glc
# Outline: as §1
# Glc(b1-4)Glc = molecular target: Glc(b1-4)Glc
# Outline: as §1
# Glc(b1-6)Glc = molecular target: Glc(b1-6)Glc
# Outline: as §1
# GlcA(b1-3)Gal = molecular target: GlcA(b1-3)Gal
# Outline: as §1
# GlcA(b1-6)Gal = molecular target: GlcA(b1-6)Gal
# Outline: as §1
# [20] = molecular target: GlcNAc(a1-3)Gal(b1-4)GlcNAc
# Outline: as §1
# [21] = molecular target: GlcNAc(a1-6)Gal(b1-4)GlcNAc
# Outline: as §1
# [22] = molecular target: GlcNAc(b1-2)Gal(b1-3)GalNAc
# Outline: as §1
# [23] = molecular target: GlcNAc(b1-2)Man(a1-3)[GlcNAc(b1-2)Man(a1-6)]Man(b1-4)GlcNAc(b1-4)GlcNAc
# Outline: as §1
# GlcNAc(b1-3)Gal = molecular target: GlcNAc(b1-3)Gal
# Outline: as §1
# [24] = molecular target: GlcNAc(b1-3)Gal(b1-3)GalNAc
# Outline: as §1
# GlcNAc(b1-3)Gal(b1-4)Glc = molecular target: GlcNAc(b1-3)Gal(b1-4)Glc
# Outline: as §1
# [25] = molecular target: GlcNAc(b1-3)Gal(b1-4)GlcNAc
# Outline: as §1
# [26] = molecular target: GlcNAc(b1-3)Gal(b1-4)GlcNAc(b1-3)Gal(b1-4)GlcNAc
# Outline: as §1
# GlcNAc(b1-3)GalNAc = molecular target: GlcNAc(b1-3)GalNAc
# Outline: as §1
# [27] = molecular target: GlcNAc(b1-3)[GlcNAc(b1-6)]Gal(b1-4)GlcNAc
# Outline: as §1
# [28] = molecular target: GlcNAc(b1-3)[GlcNAc(b1-6)]GalNAc
# Outline: as §1
# [29] = molecular target: GlcNAc(b1-3)[GlcNAc(b1-6)]GlcNAc(b1-4)GlcNAc
# Outline: as §1
# [30] = molecular target: GlcNAc(b1-4)Gal(b1-4)GlcNAc
# Outline: as §1
# [31] = molecular target: GlcNAc(b1-4)GlcNAc(b1-4)GlcNAc
# Outline: as §1
binder,measurement,setting,value
MAL (Maackia amurensis) (protein) SDELSFTINNFMPNQGDLLFQGVATVSPTGVLQLTSEENGQPLEYSVGRVLYTAPVRIWDSTTGAVASFSTSFTFVVKAARGASDGLAFFLAPPDSQIPSGSVSKYLGLFNNSNSDSSNQIVAVEFDTYFGHSYDPWDPNYRHIGIDVNGIESIKTVQWDWINGGVAFATITYLAPNKTLIASLVYPSNQTSFIVAASVDLKEILPEWVRVGFSAATGAPKAVETHDVRSWSFTSTLEANSPADVDN,glycan array binding signal (z-score),[1],-0.272
same,glycan array binding signal (z-score),[2],-0.393
same,glycan array binding signal (z-score),[3],-0.428
same,glycan array binding signal (z-score),[4],-0.367
same,glycan array binding signal (z-score),[5],-0.395
same,glycan array binding signal (z-score),[6],-0.242
same,glycan array binding signal (z-score),[7],-0.406
same,glycan array binding signal (z-score),Gal(b1-4)Glc,-0.34
same,glycan array binding signal (z-score),Gal(b1-4)Glc6S,0.035
same,glycan array binding signal (z-score),Gal(b1-4)GlcNAc,0.336
same,glycan array binding signal (z-score),[8],0.969
same,glycan array binding signal (z-score),[9],0.901
same,glycan array binding signal (z-score),[10],0.414
same,glycan array binding signal (z-score),[11],-0.021
same,glycan array binding signal (z-score),[12],0.146
same,glycan array binding signal (z-score),[13],1.49
same,glycan array binding signal (z-score),[14],2.17
same,glycan array binding signal (z-score),[15],1.55
same,glycan array binding signal (z-score),[16],-0.204
same,glycan array binding signal (z-score),[17],-0.171
same,glycan array binding signal (z-score),Gal3S(b1-3)GalNAc,3.46
same,glycan array binding signal (z-score),Gal3S(b1-3)GlcNAc,2.67
same,glycan array binding signal (z-score),[18],-0.401
same,glycan array binding signal (z-score),Gal3S(b1-4)Glc,4.98
same,glycan array binding signal (z-score),Gal3S(b1-4)Glc6S,4.51
same,glycan array binding signal (z-score),Gal3S(b1-4)GlcNAc,4.96
same,glycan array binding signal (z-score),Gal3S(b1-4)GlcNAc6S,5.35
same,glycan array binding signal (z-score),Gal3S6S(b1-4)GlcNAc,0.345
same,glycan array binding signal (z-score),Gal3S6S(b1-4)GlcNAc6S,-0.067
same,glycan array binding signal (z-score),Gal4S(b1-4)GlcNAc,-0.28
same,glycan array binding signal (z-score),Gal4S6S(b1-4)GlcNAc,-0.318
same,glycan array binding signal (z-score),Gal6S(b1-4)Glc,-0.322
same,glycan array binding signal (z-score),Gal6S(b1-4)Glc6S,-0.181
same,glycan array binding signal (z-score),Gal6S(b1-4)GlcNAc,-0.066
same,glycan array binding signal (z-score),GalNAc(a1-3)Gal,-0.273
same,glycan array binding signal (z-score),GalNAc(a1-3)GalNAc,-0.352
same,glycan array binding signal (z-score),[19],-0.397
same,glycan array binding signal (z-score),GalNAc(b1-3)GalNAc,0.05
same,glycan array binding signal (z-score),GalNAc(b1-4)GlcNAc,-0.131
same,glycan array binding signal (z-score),Glc(a1-4)Glc,-0.322
same,glycan array binding signal (z-score),Glc(a1-6)Glc(a1-6)Glc,-0.403
same,glycan array binding signal (z-score),Glc(b1-4)Glc,-0.412
same,glycan array binding signal (z-score),Glc(b1-6)Glc,-0.428
same,glycan array binding signal (z-score),GlcA(b1-3)Gal,-0.414
same,glycan array binding signal (z-score),GlcA(b1-6)Gal,-0.231
same,glycan array binding signal (z-score),[20],-0.353
same,glycan array binding signal (z-score),[21],-0.365
same,glycan array binding signal (z-score),[22],-0.423
same,glycan array binding signal (z-score),[23],-0.377
same,glycan array binding signal (z-score),GlcNAc(b1-3)Gal,-0.422
same,glycan array binding signal (z-score),[24],-0.412
same,glycan array binding signal (z-score),GlcNAc(b1-3)Gal(b1-4)Glc,-0.409
same,glycan array binding signal (z-score),[25],-0.316
same,glycan array binding signal (z-score),[26],-0.361
same,glycan array binding signal (z-score),GlcNAc(b1-3)GalNAc,-0.418
same,glycan array binding signal (z-score),[27],-0.381
same,glycan array binding signal (z-score),[28],-0.374
same,glycan array binding signal (z-score),[29],-0.239
same,glycan array binding signal (z-score),[30],-0.427
same,glycan array binding signal (z-score),[31],-0.417
